We go through five molecules from PMC8664900.

No constants are given. Whether binding was seen depends on the method and setting. For some assays here: In cells and extracts the contact can be indirect. Some entries that bind do so weakly or less than the wild type. For some assays here: Tags and fused reporters may be left off the sequences shown.

Experiment [1] concerns the target T1, Atg11-GFP-µNS (S. cerevisiae) (UniProt Q12527).
T1 sequence: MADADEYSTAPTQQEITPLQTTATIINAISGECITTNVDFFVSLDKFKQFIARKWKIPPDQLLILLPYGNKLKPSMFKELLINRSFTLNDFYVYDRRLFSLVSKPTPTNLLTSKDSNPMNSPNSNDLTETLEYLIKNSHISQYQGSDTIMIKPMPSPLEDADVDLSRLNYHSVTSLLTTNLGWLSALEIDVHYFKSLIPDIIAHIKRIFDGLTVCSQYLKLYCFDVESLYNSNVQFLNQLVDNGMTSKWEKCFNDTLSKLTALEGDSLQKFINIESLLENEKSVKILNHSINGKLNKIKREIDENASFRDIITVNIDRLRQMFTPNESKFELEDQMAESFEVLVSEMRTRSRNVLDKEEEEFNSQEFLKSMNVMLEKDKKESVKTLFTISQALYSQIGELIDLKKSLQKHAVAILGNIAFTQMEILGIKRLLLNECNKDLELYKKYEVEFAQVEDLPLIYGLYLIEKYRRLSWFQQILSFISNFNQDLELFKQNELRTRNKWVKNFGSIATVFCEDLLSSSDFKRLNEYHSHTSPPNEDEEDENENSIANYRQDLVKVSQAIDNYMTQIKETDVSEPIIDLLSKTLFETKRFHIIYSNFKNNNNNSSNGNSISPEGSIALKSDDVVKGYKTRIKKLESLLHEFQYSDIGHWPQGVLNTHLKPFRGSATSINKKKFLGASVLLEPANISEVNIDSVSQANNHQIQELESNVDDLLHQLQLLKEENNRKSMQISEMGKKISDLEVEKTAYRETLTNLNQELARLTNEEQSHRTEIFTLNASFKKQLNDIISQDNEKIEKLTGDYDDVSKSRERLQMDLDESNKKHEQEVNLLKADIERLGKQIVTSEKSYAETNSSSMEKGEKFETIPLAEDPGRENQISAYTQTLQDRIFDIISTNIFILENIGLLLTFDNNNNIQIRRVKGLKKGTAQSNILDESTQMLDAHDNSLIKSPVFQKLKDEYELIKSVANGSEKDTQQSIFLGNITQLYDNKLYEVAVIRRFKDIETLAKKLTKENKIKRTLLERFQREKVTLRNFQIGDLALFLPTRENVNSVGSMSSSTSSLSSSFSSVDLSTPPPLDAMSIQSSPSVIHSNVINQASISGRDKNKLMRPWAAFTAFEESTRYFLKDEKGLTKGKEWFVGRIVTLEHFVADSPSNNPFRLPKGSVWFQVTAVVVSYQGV
Put plainly: association with Atg11-GFP-µNS particles (fluorescence microscopy); Atg11-GFP-µNS particles in yeast cells; Supplementary Fig. 1c, d, details not shown.

For experiment [2], the target named is T2, LexA-Vac8 (S. cerevisiae) (UniProt P39968).
T2 sequence: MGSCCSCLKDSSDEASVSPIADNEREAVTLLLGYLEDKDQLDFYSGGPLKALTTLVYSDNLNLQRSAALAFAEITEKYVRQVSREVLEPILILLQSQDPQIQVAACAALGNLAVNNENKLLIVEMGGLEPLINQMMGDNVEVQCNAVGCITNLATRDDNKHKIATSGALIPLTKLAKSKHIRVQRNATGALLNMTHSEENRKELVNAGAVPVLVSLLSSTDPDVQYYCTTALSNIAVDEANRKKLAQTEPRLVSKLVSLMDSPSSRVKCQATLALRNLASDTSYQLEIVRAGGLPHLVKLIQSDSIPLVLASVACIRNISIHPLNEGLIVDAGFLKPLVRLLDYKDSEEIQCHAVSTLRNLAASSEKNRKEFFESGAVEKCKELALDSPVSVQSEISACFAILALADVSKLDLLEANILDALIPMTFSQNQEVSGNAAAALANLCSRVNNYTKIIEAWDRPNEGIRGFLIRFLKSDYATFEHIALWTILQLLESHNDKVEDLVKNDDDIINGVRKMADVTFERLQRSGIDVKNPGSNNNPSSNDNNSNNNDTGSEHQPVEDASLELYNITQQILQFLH
Kind of experiment: two-hybrid; GAD and LexA fusions in the S. cerevisiae L40 reporter strain; X-gal colour reaction of lysed cells in 96-well plates.

A further experiment concerns the target T3, Vac8-GFP (S. cerevisiae) (UniProt P39968).
T3 sequence: T2 sequence
Put plainly: co-IP; GFP immunoprecipitation with magnetic GFP-Trap beads from yeast extracts made by glass bead lysis; RLB+ buffer (1x PBS pH 7.4, 10% glycerol, 0.5% Tween-20), 1 h at 4 °C; western blot with anti-GFP and anti-protein A; also in cells lacking Atg13 (Vac8-Atg11) and in vac8∆ cells (Vps15/Vps34-Atg14). For orientation: A western blot detects proteins with antibodies after separation by electrophoresis.

B1: Atg19 (partner of Atg11-GFP-µNS particles) (protein, UniProt P35193 1-415)
chain: MNNSKTNQQMNTSMGYPLTVYDECNKFQLIVPTLDANIMLWCIGQLSLLNDSNGCKHLFWQPNDKSNVRILLNNYDYGHLFKYLQCQRKCSVYIGEGTLKKYNLTISTSFDNFLDLTPSEEKESLCREDAHEDPVSPKAGSEEEISPNSTSNVVVSRECLDNFMKQLLKLEESLNKLELEQKVTNKEPNHRISGTIDIPEDRSELVNFFTELKTVKQLEDVFQRYHDYERLSQECDSKTEIASDHSKKETKIEVEPPNERSLQITMNQRDNSLYFQLFNNTNSVLAGNCKLKFTDAGDKPTTQIIDMGPHEIGIKEYKEYRYFPYALDLEAGSTIEIENQYGEVIFLGKYGSSPMINLRPPSRLSAESLQASQEPFYSFQIDTLPELDDSSIISTSISLSYDGDDNEKALTWEEL
Regarding B1, in experiment [1], the binding entry is “binds”.

B2: Atg9 (partner of Atg11-GFP-µNS particles) (protein, UniProt Q12142 1-997)
chain: MERDEYQLPNSHGKNTFLSRIFGLQSDEVNPSLNSQEMSNFPLPDIERGSSLLHSTNDSREDVDENDLRVPESDQGTSTEEEDEVDEEQVQAYAPQISDGLDGDHQLNSVTSKENVLETEKSNLERLVEGSTDDSVPKVGQLSSEEEEDNEFINNDGFDDDTPLFQKSKIHEFSSKKSNTIEDGKRPLFFRHILQNNRPQRDTQKLFTSSNAIHHDKDKSANNGPRNINGNQKHGTKYFGSATQPRFTGSPLNNTNRFTKLFPLRKPNLLSNISVLNNTPEDRINTLSVKERALWKWANVENLDIFLQDVYNYYLGNGFYCIILEKILNICTLLFVVFVSTYMGHCVDYSKLPTSHRVSDIIIDKCYSNSITGFTKFFLWMFYFFVILKIVQLYFDVQKLSELQNFYKYLLNISDDELQTLPWQNVIQQLMYLKDQNAMTANVVEVKAKNRIDAHDVANRIMRRENYLIALYNSDILNLSLPIPLFRTNVLTKTLEWNINLCVMGFVFNESGFIKQSILKPSQREFTREELQKRFMLAGFLNIILAPFLVTYFVLLYFFRYFNEYKTSPGSIGARQYTPIAEWKFREYNELYHIFKKRISLSTTLANKYVDQFPKEKTNLFLKFVSFICGSFVAILAFLTVFDPENFLNFEITSDRSVIFYITILGAIWSVSRNTITQEYHVFDPEETLKELYEYTHYLPKEWEGRYHKEEIKLEFCKLYNLRIVILLRELTSLMITPFVLWFSLPSSAGRIVDFFRENSEYVDGLGYVCKYAMFNMKNIDGEDTHSMDEDSLTKKIAVNGSHTLNSKRRSKFTAEDHSDKDLANNKMLQSYVYFMDDYSNSENLTGKYQLPAKKGYPNNEGDSFLNNKYSWRKQFQPGQKPELFRIGKHALGPGHNISPAIYSTRNPGKNWDNNNNGDDIKNGTNNATAKNDDNNGNNDHEYVLTESFLDSGAFPNHDVIDHNKMLNSNYNGNGILNKGGVLGLVKEYYKKSDVGR
On to B2, for which, in experiment [1], the binding result was “binds”.

B3: Atg11^1–454-GAD (domain or fragment, UniProt Q12527 1-454)
chain: MADADEYSTAPTQQEITPLQTTATIINAISGECITTNVDFFVSLDKFKQFIARKWKIPPDQLLILLPYGNKLKPSMFKELLINRSFTLNDFYVYDRRLFSLVSKPTPTNLLTSKDSNPMNSPNSNDLTETLEYLIKNSHISQYQGSDTIMIKPMPSPLEDADVDLSRLNYHSVTSLLTTNLGWLSALEIDVHYFKSLIPDIIAHIKRIFDGLTVCSQYLKLYCFDVESLYNSNVQFLNQLVDNGMTSKWEKCFNDTLSKLTALEGDSLQKFINIESLLENEKSVKILNHSINGKLNKIKREIDENASFRDIITVNIDRLRQMFTPNESKFELEDQMAESFEVLVSEMRTRSRNVLDKEEEEFNSQEFLKSMNVMLEKDKKESVKTLFTISQALYSQIGELIDLKKSLQKHAVAILGNIAFTQMEILGIKRLLLNECNKDLELYKKYEVEFAQVE
Consider B3, for which the binding result in experiment [2] is recorded as “binds”.

B4: 2xProteinA-Atg11^1–454 (domain or fragment, UniProt Q12527 1-454)
chain: B3 chain
In the case of B4, the binding entry with Vac8-GFP (S. cerevisiae) is reported as “binds”.

B5: Atg11^FL-GAD (protein, UniProt Q12527 1-1178)
chain: T1 sequence
For the molecule B5, the binding result in experiment [2] is given as “binds”.
